Biological target: T1, GAL4/HIF 1-826 (human, UniProt P04386 1-147 (Saccharomyces cerevisiae entry), [35S]methionine-labeled (in vitro translated) in the pull-down assay)
T1 construct: also called GAL4-HIF-1α; pCMX-GAL4-HIF-1α
Test: pull-down of in vitro translated [35S]-labeled GAL4/HIF 1-826 with purified GST

B1: GST alone (other)
chain: not shown
notes: Negative control in the pull-down assays; also called purified GST; empty GST expression vector
binding result: no binding

— patent publication US6436654 (PHARMACIA AND UPJOHN, dated 2002)
